Screen size: about 52,000 compounds; about 1,700 (3.3%) were called active. No stated cut-off is given here; in the data, active means survival mostly below about 52% (no sharp cut-off); inactive means mostly above about 56%. This is one part of the list.
test system: Wild type; assay: growth inhibition of S. aureus wild type versus tarO mutant, primary screen, teichoic acid synthesis inhibitors, RN4220, OD600 (AID 463173); conditions: S. aureus RN4220 wild type/DeltatarO growth, OD600, 18 h, active compounds read low, screened at 18.75 µg/mL (by protocol)

Compound | survival
CCc1ccc2occ(CC(=O)Nc3ccccc3C(F)(F)F)c2c1 | inactive: 118%
[O-]/[N+](Cc1ccccc1F)=N\O | inactive: 111%
CCOc1ccccc1-n1nnc(-c2nsc(NC(=O)c3ccc(C)cc3)n2)c1C | inactive: 98%
Cc1cc(C)cc(C(=O)Nc2ccccc2N2CCOCC2)c1 | inactive: 115%
CCc1ccccc1OCC(=O)Nc1ccc(S(=O)(=O)Nc2nc(C)cc(C)n2)cc1 | inactive: 79%
Cc1nc2cc(C(=O)N3CCN(C)CC3)ccc2n1-c1ccccc1 | inactive: 104%
O=C(NCCn1ccc2ccccc21)c1ccc(Cl)cc1 | inactive: 83%
Cc1cccc(N2CCN(CCNC(=O)Nc3ccc(Cl)cc3)CC2)c1C | inactive: 87%
COc1ccccc1NC(=O)CSc1nc(-c2ccc(C(C)(C)C)cc2)c(C#N)c(=O)[nH]1 | inactive: 57%
COc1ccc(NC(=O)Cn2c(=O)n(Cc3nc(-c4ccccc4)no3)c(=O)c3ccccc32)cc1Cl | inactive: 124%
COc1ccc(/C=C/C(=O)Nc2nc3n(n2)C(c2ccc(F)cc2)C=C(c2ccccc2)N3)cc1 (stereo not given) | inactive: 56%
CCOC(=O)c1c(-c2ccc(C)cc2)csc1NC(=O)c1cc(=O)c2ccc(C)cc2o1 | inactive: 114%
CSc1cccc(Nc2cc(C(=O)NCCCN(C)c3ccccc3)c3ccccc3n2)c1 | inactive: 99%
COc1cc(C(=O)n2nc(C)c(Sc3ccc(Cl)cc3)c2C)cc(OC)c1OC | inactive: 47%
COc1ccc(NC(=O)C2CCCN(S(=O)(=O)c3ccc(Br)s3)C2)cc1 (stereo not given) | inactive: 77%
CC(=O)N1CCc2cc(S(=O)(=O)NC(C(=O)Nc3ccc(C)cc3C)C(C)C)ccc21 (stereo not given) | inactive: 85%
COc1cccc(CNC(=O)Cc2c(C(=O)O)c(C)cn2C)c1 | active: 0%
COc1ccc(CC(=O)NCC(c2cccs2)S(=O)(=O)c2ccc(C)cc2)cc1 (stereo not given) | inactive: 153%
CCOC(=O)c1c(NC(=O)c2cc(-c3cccc(OC)c3)on2)sc2c1CCCC2 | inactive: 70%
CCCCOc1ccccc1CC1C(=O)Nc2ccc(Br)cc21 (stereo not given) | active: 3%
O=C(NCc1cccs1)c1ccc(CSc2nc3cccnc3n2Cc2ccccc2F)cc1 | inactive: 75%
OCCNc1ncnc2ccc(Br)cc12 | inactive: 110%
CCc1ccc(NC(=O)Cn2c(=O)n(Cc3ccco3)c(=O)c3oc4ccccc4c32)cc1 | inactive: 87%

Compound | survival
CC(C)c1ccc(NC(=O)CN2C(=O)COc3ccc(S(=O)(=O)N4CCCCCC4)cc32)cc1 | inactive: 109%
COc1ccccc1N1CCN(c2ncnc3onc(-c4cccc(Cl)c4)c23)CC1 | inactive: 74%
O=C(NCc1cccc(Cl)c1)c1ccc2nc(N3CCCCC3)sc2c1 | inactive: 80%
CCOC(=O)c1c(C)n(-c2ccccc2)c2ccc(OC(=O)c3cccc(OC)c3OC)cc12 | inactive: 57%
Cc1cc(C)c(NC(=O)Cn2cnc3c(oc4ccccc43)c2=O)c(C)c1 | inactive: 81%
O=C(NCCN1CCOCC1)c1cnn2c(C(F)F)cc(-c3ccccc3)nc12 | inactive: 97%
Cc1oc(-c2ccccc2Cl)nc1CSc1nc2ncccc2[nH]1 | inactive: 77%
COc1ccc(S(=O)(=O)Nc2c(C)nc3nc(C)[nH]n3c2=O)cc1 | inactive: 82%
CCN(CC)C(=O)c1ccc(Nc2nnc(-c3ccc(C)c(S(=O)(=O)NC)c3)c3ccccc23)cc1 | inactive: 79%
CCc1cccc(N2C(=O)CSC23C(=O)Nc2ccccc23)c1 (stereo not given) | inactive: 77%
O=C(CC(NCc1ccccc1)C(=O)O)NC1CCCCC1 (stereo not given) | inactive: 117%
CC(C)Oc1ccc(Cc2cnc(=S)[nH]c2N)cc1 | inactive: 103%
CCCN(C(=O)c1cc2c(=O)[nH]c3ccc(C)cc3c2s1)c1ccc(CC)cc1 | inactive: 63%
CCOc1ccc(CNS(=O)(=O)c2ccc3c(c2)CCCN3C(C)=O)cc1OC | inactive: 93%
CCOC(=O)N1CCN(Cc2ccccn2)CC1 | inactive: 101%
CCc1nnc2c(N3CCN(c4cc(Cl)ccc4C)CC3)nc3ccccc3n12 | active: -6%
CCOC(=O)C1CCCN(C(=O)c2nn(-c3ccc(C)cc3)c(=O)n(C)c2=O)C1 (stereo not given) | inactive: 83%
COc1ccc(CC(=O)N2CCc3cc(OC)c(OC)cc3C2COc2ccc3c(C)cc(=O)oc3c2)cc1 (stereo not given) | inactive: 133%
CC1CCN(C(=O)c2cc(-c3ccc(Br)cc3)on2)CC1 | inactive: 78%
CCOc1ccc(NC(=O)CCNS(=O)(=O)c2cccc3nonc23)cc1 | inactive: 98%
COc1ccc(C2=NC(c3ccncc3)=Nc3ccc(OC)cc3N2)cc1 | inactive: 111%
COc1ccc(C2=C(C)C(=O)N(Cc3ccc(C(=O)NCc4cccc(C)c4)cc3)S2(=O)=O)cc1 | inactive: 117%
COc1ccc2c(c1)c(N1CCCC1=O)c(C(=O)Nc1ccccc1C(F)(F)F)n2C | inactive: 88%

Compound | survival
COc1ccc(-c2noc(N3CCC(C(=O)N4CCN(c5cccc(C)c5C)CC4)CC3)n2)cc1 | inactive: 70%
O=C1[C@@H]2CSC(c3ccc(Cl)cc3)N2C(=O)N1c1ccccc1 (stereo not given in full) | inactive: 79%
CC(C)c1ccc(N2C(=O)CSC23C(=O)N(C)c2ccccc23)cc1 (stereo not given) | inactive: 71%
COc1ccc(-c2noc(COc3cc(C)ccc3C)n2)cc1OC | active: 0%
O=C(COc1ccc(F)cc1)Nc1ccc2nc(SCC(=O)N3CCOCC3)sc2c1 | inactive: 96%
COc1cc2c(cc1OC)n(Cc1cccc(C(F)(F)F)c1)c(=O)n1nc(-c3ccccc3)nc21 | inactive: 108%
O=C(Oc1cccc2cccnc12)c1ccccc1 | active: 1%
Cc1cc(C)c(NC(=O)CN(C)S(=O)(=O)c2ccc3c(c2)CCC(=O)N3)c(C)c1 | inactive: 77%
O=C1CCCc2cc(S(=O)(=O)N3CCCC(C(=O)NCc4ccccc4)C3)ccc2N1 (stereo not given) | inactive: 69%
CC(=O)c1cccc(NC(=O)c2nc(-c3ccccc3)n(-c3ccccc3)n2)c1 | inactive: 93%
COc1cccc(NC(=O)CCNS(=O)(=O)c2ccc3c(c2)oc(=O)n3C)c1 | inactive: 79%
COc1ccc(CNC(=O)c2cc3c(=O)n(Cc4ccco4)ccc3nc2C)cc1 | inactive: 74%
COc1nc(NCCO)nc(Nc2ccccc2F)n1 | inactive: 104%
O=C(CSCn1nnc2c(=O)[nH]c(Cc3ccc(F)cc3)nc21)Nc1cccc(C(F)(F)F)c1 | inactive: 87%
CC(=O)Nc1ccc(NC(=O)CCCn2nc(C)c3sc4ccccc4c3c2=O)cc1 | inactive: 86%
CCOc1ccc(N(C)S(=O)(=O)c2ccc3c(c2)CCCN3C(C)=O)cc1 | inactive: 75%
CCOc1ccc(NS(=O)(=O)c2cc3c(cc2Cl)NC(=O)CO3)cc1 | inactive: 94%
Cc1cc(C)c(NC(=O)CCS(=O)(=O)c2cc3c(cc2Cl)NC(=O)CO3)c(C)c1 | inactive: 89%
CCC(C)NC(=O)C1CCN(S(=O)(=O)c2ccc3c(c2)CCCN3C(C)=O)CC1 (stereo not given) | inactive: 60%
CCn1cc(C(=O)N2CCN(c3ccc(C)cc3)C(C)C2)c(=O)c2cc(S(=O)(=O)N3CCCC3)ccc21 (stereo not given) | inactive: 84%
CCc1ccccc1NC(=O)C(=O)NCCCN1CCOCC1 | inactive: 73%
COc1cc2c(cc1OC)C(COc1cccc(C(F)(F)F)c1)N(C(=O)c1ccc(S(=O)(=O)N3CCCC3)cc1)CC2 (stereo not given) | inactive: 77%
Cc1nc2ccc(S(=O)(=O)N(CC(=O)Nc3ccc(F)cc3F)Cc3ccccc3)cc2s1 | inactive: 88%

Compound | survival
CNC(=O)CCCN1C(=O)c2cccnc2Sc2ccccc21 | inactive: 82%
CCOc1cc(C(=O)NCCc2sc(-c3ccc(F)cc3)nc2C)cc(OCC)c1OCC | inactive: 140%
O=C(Cn1c(SCc2ccccc2F)nc2ccncc21)Nc1ccccc1C(F)(F)F | inactive: 44%
Cc1ccc(S(=O)(=O)Nc2cccc(-c3cn4cccc(C)c4n3)c2)c(C)c1 | inactive: 51%
O=C(Cn1c(=O)c2cccn2c2cccnc21)NCc1cccc(F)c1 | inactive: 85%
CCOc1ccc(NC(=O)c2ccc3[nH]c(C)c(C)c3c2)cc1 | inactive: 113%
O=C(Cn1ccc2cc(S(=O)(=O)N3CCCCC3)ccc21)NCCc1ccccc1Cl | active: -6%
COc1ccccc1NC(=O)Cn1c(=O)n(Cc2ccccc2)c(=O)c2c1c1cc(C)ccc1n2C | inactive: 70%
Cc1cccc(N2C(=O)c3cccc4c(N5CCNCC5)ccc(c34)C2=O)c1 | inactive: 87%
Cc1ccccc1NC(=O)Cn1cc(C(=O)c2cccs2)c2ccccc21 | inactive: 102%
CCc1ccc(NC(=O)CSC2=Nc3ccccc3C3=NC(CCC(=O)NCc4ccccc4)C(=O)N23)cc1 (stereo not given) | inactive: 124%
CCCCN(C)C(=O)c1cn(C)c2ccc(S(=O)(=O)N3CCC(C)CC3)cc2c1=O | inactive: 86%
CC(SC12CC3CC(CC(C3)C1)C2)C(=O)O (stereo not given) | inactive: 121%
CC(NC(=O)CSc1n[nH]c(-c2ccccc2Cl)n1)c1nc2ccccc2[nH]1 (stereo not given) | inactive: 75%
COc1ccc(C(=O)CN2CCC(N3CCCCC3)CC2)cc1 | inactive: 106%
Cc1ccsc1CN1CCc2nc(Nc3ccccc3)ncc2C1 | inactive: 55%
CCCCC(=O)OC1=C(C(=O)c2ccccc2)N(CCC)S(=O)(=O)c2ccccc21 | inactive: 43%
CC1=C(C(=O)Nc2cccc(Cl)c2C)C2(CCCCCC2)OC1=O | active: -2%
CC1CCN(S(=O)(=O)c2ccc3c(c2)CCN3)CC1 | inactive: 135%
O=C(c1cnn(-c2ccc(F)cc2)c1-n1cccc1)N1CCN(c2ccc(F)cc2)CC1 | inactive: 68%
CCNc1nc(NCc2ccc(F)cc2)c2cnn(C)c2n1 | inactive: 94%

Source: PubChem BioAssay AID463173 (ICCB-Longwood Screening Facility, Harvard Medical School, 2010)
